# Test results: PubChem BioAssay AID1671193 (National Center for Advancing Translational Sciences (NCATS), 2021)
# Where “and” joins values, the source holds several entries; their conditions need not be identical. Identical values can stand only once. Among all 150,000 compounds or so, about 180 (0.12%) were called active. The shares of active, inactive and inconclusive entries below differ from those in the screen. The call rests on the fitted dose curve; in most records, active means well fitted cell-killing curve with a large enough effect; inconclusive means small, poorly fitted or top-dose-only effect, or effect the other way; inactive means flat fitted curve, though single readings scatter. Where the call is inconclusive, the potency comes from a doubtful curve fit.
# Assay: GF-AFC viability counterscreen for inhibitors of alpha-synuclein gene (SNCA) expression; further: nearly all actives have a fitted effect of over 30% in size;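 on activity change, negative = cytotoxicity: 0% = DMSO-treated cells and -100% = medium-only wells without cells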
# Conditions: HEK-293-SNCA-luc viability, GF-AFC fluorescence, 24 h; activity change, negative = cytotoxicity: at 57.1 µM (top of the series) unless noted
# In short: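 HEK-293-SNCA-luc cells (1500/well) plated 24 h, then exposed 24 h to a dilution series; GF-AFC added 30 min at 37C, fluorescence 405/540 nm; normalised to medium-only and DMSO wells, Hill fit.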
# Potency means the concentration at half of the fitted maximal effect; tags describe the fitted curve by direction and shape.
SMILES,Potency,"activity change, negative = cytotoxicity"
c1ccc2c(Nc3ccncc3)nc(-c3ccc4c(c3)OCO4)nc2c1,"inconclusive: 15.8 µM [cytotoxic, partial curve]",
Cc1nc(C)c(C(=O)N2CC(Oc3ccc(-c4noc(-c5ccccc5)n4)cc3)C2)s1,"inconclusive: 2.51 µM [cytotoxic, partial curve, poor fit]",
CO[C@H]1[C@H](NC(=O)c2cnn3cccnc23)c2ccccc2C12CCNCC2,,inactive: -5.34%
CCC(CC)CN1CC2(CCN(C(=O)c3cn4cccnc4n3)CC2)OC1=O,,inactive: 4.5%
Cc1cccn2c(CN(C)CCc3cnn(C)c3)c(C(=O)N(C)CCc3ccccc3)nc12,"inconclusive: 8.91 µM [cytotoxic, partial curve, poor fit]",
Cc1cnc(Nc2ccc(CN3CCOCC3)cc2)nc1Nc1cccc(S(=O)(=O)NC(C)(C)C)c1,"inactive and inconclusive: 23.8 µM [cytotoxic, partial curve, poor fit]",
COc1ncccc1C(=O)N1CCC(CCC(=O)N2CCC(Cc3ccccc3)CC2)CC1,"inconclusive: 17.8 µM [cytotoxic, partial curve, poor fit]",
O=C(NC1CCC1)C1CCCN(C2CCN(C3Cc4ccccc4C3)CC2)C1 (stereo not given),,inactive: 0.578%
CC(=O)c1cccc(NC(=O)Cn2c(-c3ccc(F)cc3)nc(C)cc2=O)c1,"inconclusive: 3.98 µM [cytotoxic, single point]",
COc1ccc(Nc2ccnc(N3CCN(C(=O)Cc4ccc(F)cc4)CC3)n2)cc1,,inactive: -17.4% [at 12.5 µM]
COc1cc(/C=C/CO)cc(OC)c1O[C@@H]1O[C@H](CO[C@@H]2O[C@H](CO)[C@@H](O)[C@H](O)[C@H]2O)[C@@H](O)[C@H](O)[C@H]1O,"inconclusive: 0.0026 µM [rising, full curve, poor fit]",
O=C(N[C@H]1CCN2C(=O)c3cc(-c4cccs4)ccc3NC(=O)[C@H]12)c1cccc(F)c1,,inactive: -8.62%
COc1ccc(N2C(=O)C3(CCCCC3)C2C(=O)N2CCN(CC(C)C)CC2)cc1 (stereo not given),,inactive: -17.8%
CCC(=O)N1CCC(CC)(N2CCN(S(=O)(=O)c3ccccc3C(F)(F)F)CC2)C1 (stereo not given),,inactive: -5.42%
COc1ccc(CN2C=C(C(=O)OCc3noc(-c4ccc(C)cc4)n3)C(C)=NS2(=O)=O)cc1,,inactive: 5.91%
COCCCNC(=O)c1sc2nc(C)c(C(=O)Nc3ccc(C)cc3C)c(-c3ccccc3Cl)c2c1N,"inconclusive: 22.4 µM [rising, partial curve, poor fit]",
Fc1ccc(CNC[C@H]2Cn3cc(-c4ccccc4)nc3CO2)cc1,,inactive: 4.23% [at 87.6 µM]
NC1CCN(C(=O)C2CCN(c3nc(-c4ccccc4)nc4c3CCC4)CC2)C1 (stereo not given),"inconclusive: 15.8 µM [cytotoxic, partial curve]",
CO[C@@H]1CCOC[C@H]1NS(=O)(=O)c1ccc2c(c1)N(C(C)=O)CCO2,"inconclusive: 3.98 µM [cytotoxic, partial curve, poor fit]",
COc1ccc(F)cc1-c1cccc(C(=O)NCCNC(=O)c2ccccc2)c1,"inconclusive: 20 µM [cytotoxic, partial curve, poor fit]",

SMILES,Potency,"activity change, negative = cytotoxicity"
CCN1CCN(Cc2ccc(NC(=O)c3ccc(C)c(/C=C/c4cnc5[nH]ccc5c4OC)c3)cc2C(F)(F)F)CC1,active: 23.8 µM,
CCCOc1cccc(C2c3c(-c4ccccc4O)n[nH]c3C(=O)N2Cc2ccco2)c1 (stereo not given),"inconclusive: 28.2 µM [cytotoxic, single point]",
CNC(=O)N1C[C@@H](Oc2ccccc2)C[C@H]1C(=O)NCCOC,,inactive: 0.782%
Cc1ccc(C(=O)N2CCCC(C(=O)N3CCC(c4ccccc4)CC3)C2)cc1 (stereo not given),,inactive: 0.565%
Cc1cc(C(=O)N2C[C@@H](COCC3CC3)[C@H](c3ccncc3)C2)no1,,inactive: 1.75%
Cc1ccc(CCNC(=O)CN2C(=O)COc3ccc(S(=O)(=O)N4CCCCCC4)cc32)cc1,"inconclusive: 35.5 µM [cytotoxic, single point]",
Cc1nn2c(c1-c1ccnn1C(C)C)N(C(=O)COc1ccccc1C(N)=O)CCC2,,inactive: -2.52% [at 87.6 µM]
COc1ccccc1-c1ccc(CN2CCCCC2C(=O)N2CCCC2)cc1 (stereo not given),"inconclusive: 8.91 µM [cytotoxic, single point]",
CN(C)Cc1ccccc1-c1nc(NC2CC2)c2ccccc2n1,"inconclusive: 1.78 µM [cytotoxic, partial curve, poor fit]",
O=C(NC1CCCN(c2cc(-c3ccc(Cl)cc3)[nH]n2)C1)c1ccc(Br)o1 (stereo not given),"inconclusive: 25.1 µM [cytotoxic, single point]",
CCN(CC)C(=O)Cn1c(=O)n(Cc2ccc(C(=O)NCCCOC)cc2)c(=O)c2ccccc21,"inconclusive: 12.6 µM [cytotoxic, partial curve, poor fit]",
COc1ccc(-c2nc3scc(CCNS(=O)(=O)c4ccc(Oc5ccccc5)cc4)n3n2)cc1,"inconclusive: 39.8 µM [cytotoxic, single point]",
COc1ccccc1Nc1c2c(nc3ccc(NC(=O)c4ccccc4F)cc13)CCCC2,"inconclusive: 12.6 µM [cytotoxic, partial curve]",
Cc1noc(-c2nc(-c3ccccc3C)no2)n1,,inactive: -7.23%
Cc1ccc(CNC(=O)c2cc3c(N(C)Cc4ccccc4)nc(C)cn3n2)cc1,,inactive: 3.94%
O=C(CSc1c2c(nc3cc(Cl)ccc13)CCCC2)N1CCN(c2ccccc2)CC1,"inconclusive: 28.2 µM [cytotoxic, single point]",
CCOC(=O)c1c(-c2ccc(C)cc2)csc1NC(=O)c1cc(=O)c2cc(C)cc(C)c2o1,"inconclusive: 25.1 µM [rising, partial curve, poor fit]",
CC1=C[C@@H](CNC2CCN(C)CC2)[C@H](C(C)C)C[C@H]1Cc1nc2ccccc2[nH]1,"inconclusive: 22.4 µM [cytotoxic, partial curve, poor fit]",
COc1ccc(S(=O)(=O)N2CCC3(CC2)CC(CC(=O)NC2CC2)CCO3)cc1 (stereo not given),,inactive: 2.29%
O=C(Nc1sc2c(c1C(=O)NCc1ccccc1)CCCC2)c1cc(=O)c2ccccc2o1,"inconclusive: 28.2 µM [cytotoxic, single point]",
